Results on 34 compounds are retold here after the supplement of paper PMC7266297.

Where a name gives a salt, the structure may show the parent alone. This is one part of the list. Single values are uncertain, as repeats are few or missing.

For one test, the system named is KB-3-1. The test can be described thus: growth inhibition relative to DMSO control (SRB); cervical cancer cells: KB-3-1 is the parent and KB-V1 overexpresses MDR1; SRB is the sulforhodamine B stain; higher = more growth inhibition. The following applies: 1 µM; 72 h.
A further test concerns KB-V1. The description is as above. The following applies: 1 µM; 72 h.
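Note: Read-out is SRB optical density at 490 nm, with the control being wells given 0.5% DMSO vehicle, and compound added one day after cells were plated.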

Take `CCC(=O)N1CCN(c2ccc(-n3c(=O)ccc4cnc5ccc(-c6cnc7ccccc7c6)cc5c43)cc2C(F)(F)F)CC1` [Torin 1]: the growth inhibition in the test on KB-3-1 came out at 82.4%; with KB-V1, 84.4%.
The corresponding values for `CC(C)(Cc1ccc2ccccc2c1)NC[C@@H](O)COc1cccc(Cl)c1C#N` are < 0% and 35.9%.
The corresponding values for `CNC(=O)c1cccc(-c2ccc3c(N4CCOC[C@@H]4C)nc(N4CCOC[C@@H]4C)nc3n2)c1` are 70% and 82.1%.
The corresponding values for `CCOC(=O)[C@H](CCc1ccccc1)N[C@H]1CS[C@H](c2cccs2)CN(CC(=O)O)C1=O` [Temocapril HCl] are 95.5% and 85%.
`Nc1ccc(C(=O)O)c(O)c1` [Sodium 4-Aminosalicylate]: the growth inhibition in the test on KB-3-1 and in the test with KB-V1 was < 0% in each case.
Consider `NC(=O)c1cn(Cc2c(F)cccc2F)nn1` [Rufinamide], for which the growth inhibition came out at 36% in the test on KB-3-1 and 37.5% in the test with KB-V1.
As to `COc1ccccc1OCC(O)CN1CCN(CC(=O)Nc2c(C)cccc2C)CC1` (stereo not drawn) [Ranolazine 2HCl], the growth inhibition with KB-3-1 turned out to be 9.53%; with KB-V1 it was 40.5%.
Take `COc1ccc(-c2cnc3c(-c4cccc5ncccc45)cnn3c2)cc1`: the growth inhibition is 5.75% with KB-3-1 and < 0% in the test on KB-V1.
As for `CCN1CCN(Cc2ccc(-c3cc4c(N[C@H](C)c5ccccc5)ncnc4[nH]3)cc2)CC1`, the results for the growth inhibition in the test with KB-3-1 and in the test with KB-V1 were 41% and 21.1%, respectively.
`CCS(=O)(=O)c1cccc(-c2cc(C(=O)NC3CCN(C)CC3)c(C)c3[nH]c4ncc(C)cc4c23)c1`: the growth inhibition turned out to be 55.6% in the test with KB-3-1 and 14.1% with KB-V1.
Take `CC(=O)/N=c1/sc(S(N)(=O)=O)nn1C` [Methazolamide]: the growth inhibition in the test with KB-3-1 worked out at 14.1%; in the test on KB-V1, 14%.
Taken in the same sequence, the figures for `C[C@]12CCC3=C4CCC(=O)C=C4CC[C@H]3[C@@H]1CC[C@@]2(O)CC#N` [Dienogest] were 38.7% and 41.8%.
Taken in the same sequence, the figures for `Cc1ccc(NC(=O)c2ccc(CN3CCN(C)CC3)cc2)cc1Nc1nccc(-c2cccnc2)n1` [Imatinib (STI571)] were 25.1% and 9.57%.
The corresponding values for `Cc1cccc(Nc2ccccc2C(=O)O)c1C` [Mefenamic Acid] are 33.6% and 9.32%.
For the compound `Cc1nc2n(c(=O)c1CCN1CCC(c3noc4cc(F)ccc34)CC1)CCCC2` [Risperidone], the results for the growth inhibition in the test with KB-3-1 and in the test with KB-V1 were 37.1% and 17.8%, respectively.
Taken in the same sequence, the figures for `O=C(/C=C\n1cnc(-c2cc(C(F)(F)F)cc(C(F)(F)F)c2)n1)N1CC(F)(F)C1` were 71.2% and 73.2%.
The corresponding values for `O=C(N/N=C/c1ccc(O)c(O)c1)c1cc2ccccc2cc1O` [Dynasore] are 37.3% and < 0%.
Taken in the same sequence, the figures for `COc1cc(Nc2ncc(F)c(Nc3ccc4c(n3)N(COP(=O)(O)O)C(=O)C(C)(C)O4)n2)cc(OC)c1OC` [Fostamatinib (R788)] were 34% and 3.73%.
On to `COC(=O)C1=C(C#N)NC(C)=C(C(=O)OC(C)C)C1c1cccc([N+](=O)[O-])c1` (stereo not drawn) [Nilvadipine], for which the growth inhibition in the test with KB-3-1 and in the test on KB-V1 was < 0% in each case.
For `CCOC(=O)[C@H](CCc1ccccc1)N[C@H]1CCc2ccccc2N(CC(=O)O)C1=O` [Benazepril HCl], the growth inhibition turned out to be 10.2% in the test with KB-3-1 and 35.1% with KB-V1.
The corresponding values for `Cc1ccccc1C(C(=O)NC1CCCCC1)N(C(=O)Cn1ccnc1C)c1cccc(F)c1` (stereo not drawn) are < 0% and < 0%.
Taken in the same sequence, the figures for `CC1(C)CC(=O)c2c(C(F)(F)F)nn(-c3ccc(C(N)=O)c(N[C@H]4CC[C@H](OC(=O)CN)CC4)c3)c2C1` were < 0% and < 0%.
Taken in the same sequence, the figures for `O=C(O)Cc1cccc(OCCCN(Cc2cccc(C(F)(F)F)c2Cl)CC(c2ccccc2)c2ccccc2)c1` were 26% and < 0%.
Consider `Cc1nccn1CC1CCc2c(c3ccccc3n2C)C1=O` (stereo not drawn) [Ondansetron HCl], for which the growth inhibition in the test on KB-3-1 came to 9.21%; with KB-V1, 29.3%.
The corresponding values for `C[C@@H]1CCO[C@H]2Cn3cc(C(=O)NCc4ccc(F)cc4F)c(=O)c(O)c3C(=O)N12` are < 0% and < 0%.
Take `O=C(Nc1ccccc1)c1cc([N+](=O)[O-])ccc1Cl`: the growth inhibition is < 0% with KB-3-1 and 11.3% in the test with KB-V1.
Regarding `COCCCC/C(=N\OCCN)c1ccc(C(F)(F)F)cc1` [Fluvoxamine maleate], the figures for the growth inhibition in the test on KB-3-1 and in the test on KB-V1 were 13.2% and 64.4%, respectively.
The corresponding values for `Cc1ccc2c(=O)c3cccc(CC(=O)O)c3oc2c1C` [DMXAA (Vadimezan)] are 29.6% and 19.9%.
As to `NC(=O)c1noc([C@H](CCCC2CCCCC2)CC(=O)NO)n1`, the values for the growth inhibition with KB-3-1 and in the test on KB-V1 were < 0% and 2.8%, respectively.
The corresponding values for `CC(C)(C#N)c1ccc(N2C(=O)OCc3cnc4ccc(-c5cnc6ccccc6c5)cc4c32)cc1` are 79.4% and 48.6%.
Take `CN(C)CC(c1ccc(O)cc1)C1(O)CCCCC1` (stereo not drawn) [Desvenlafaxine Succinate]: the growth inhibition came out at 9.32% with KB-3-1 and 7.06% in the test on KB-V1.
In the case of `NC(=O)C(c1ccccc1)(c1ccccc1)[C@@H]1CCN(CCc2ccc3c(c2)CCO3)C1` [Darifenacin HBr], the growth inhibition in the test with KB-3-1 is 2.81%; in the test with KB-V1, 3.83%.
For `Nc1nc2ccc(OC(F)(F)F)cc2s1` [Riluzole], the results for the growth inhibition in the test with KB-3-1 and in the test on KB-V1 were 31.7% and 14.1%, respectively.
In the case of `CCOC(=O)C1=C(C)NC(C)=C(C(=O)OC)C1c1cccc([N+](=O)[O-])c1` (stereo not drawn) [Nitrendipine], the growth inhibition with KB-3-1 was 28.7%; in the test with KB-V1 it was 5.22%.
